PubChem BioAssay AID504832 (National Center for Advancing Translational Sciences (NCATS), 2011)
Where “and” joins values, the source holds several entries; their conditions need not be identical. Equal entries are not always repeated. In all, about 310,000 compounds went through this assay and about 18,000 (5.8%) were called active. Inconclusive means that the source gave no clear call. Such entries were picked first, then a sample of the others. Calls come from the whole dose curve; as a rule, active = well fitted inhibition curve with a large enough effect; inconclusive = small, poorly fitted or top-dose-only effect, or another doubt; inactive = no such curve, though single readings can be large or run the other way. Potencies of inconclusive entries are left out as doubtful fits.

assay: Primary qHTS for delayed death inhibitors of the malarial parasite plastid, 48 hour incubation; details: P. falciparum luciferase growth in erythrocytes; series mostly up to 28.7 µM
In short: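 Here the parasites carry a stable luciferase gene and grow inside erythrocytes in Albumax-based RPMI medium with compound for one erythrocytic cycle. Activity is scored as loss of luminescent signal.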
Potency is the fitted concentration of half-maximal effect; tags give direction and shape of the fitted curve.

| Structure (SMILES) | Potency |
| --- | --- |
| Cc1c(Cl)cccc1NC(=O)NN1CCN(C)CC1 | inactive |
| CCN(Cc1ccncc1)C(=O)CCc1nnc(CCC2CCCCC2)o1 | inconclusive [inhibitor, single point] |
| CCc1cc(Cn2nc(-c3ccccc3)cc2C(=O)NCc2ccccc2OC)on1 | active: 10.4 µM |
| Cc1c(Cc2ccccc2)sc(N)c1C(N)=O | inconclusive [inhibitor, single point] |
| CCC(=O)c1ccc(O)c(CC=C(C)C)c1 | inconclusive [inhibitor, single point] |
| Brc1ccc(C2=NC(Cc3ccccc3)CO2)cc1 (stereo not drawn) | inactive |
| C(/C=C/c1ccccc1)=N/N1CCN(c2ccccc2)CC1 | inactive |
| COc1ccc(CNC(=O)C2CCN(S(=O)(=O)c3ccc4c(c3)CC(C)N4C(C)=O)CC2)cc1 (stereo not drawn) | inconclusive [inhibitor, partial curve, poor fit] |
| c1ccc(-c2nc(C3CCCCC3)c3ccccc3n2)cc1 | inactive |
| CCOc1cc2c(cc1OCC)C(c1ccc(OC)cc1)N(c1ccccc1)C(=O)C2 (stereo not drawn) | inconclusive [inhibitor, partial curve, poor fit] |
| CCOC(=O)c1cc(-c2c(Cl)cccc2Cl)no1 | inconclusive [inhibitor, full curve, poor fit] |
| OCCN1CCN(CCCN2c3ccccc3Sc3ccc(C(F)(F)F)cc32)CC1 | active: 8.49 µM and active: 5.22 µM |
| CCN1CCN(c2ncc(C(=O)Nc3ccccc3C(=O)OC)c3ccccc23)CC1 | inconclusive [inhibitor, single point] |
| O=c1oc2ccc(F)cc2c2c1C1O[C@](c3ccsc3)(Cc3c1ccc1ccccc31)O2 | inconclusive [inhibitor, single point] |
| O=C(NC1CCCCC1)N1CCc2[nH]c3ccccc3c2C1 | inconclusive [inhibitor, single point] |
| O=C(Nc1cc(S(=O)(=O)N2CCCCC2)ccc1Oc1ccccc1)C1=COCCO1 | active: 10.4 µM |
| COC(=O)c1c(NC(=O)COc2ccc(Cl)cc2)sc2c1CC(C)(C)NC2(C)C | inconclusive [inhibitor, single point] |
| O=C(NCCCN1CCOCC1)/C(=C/c1cccnc1)NC(=O)c1ccccc1 | inactive |
| Cc1ccc(C(=O)Nc2ccc(N3CCOCC3)cc2N2CCOCC2)cc1 | inactive |
| CS(=O)(=O)Nc1nc2n(n1)C(c1ccccc1)CC(c1ccccc1)N2 (stereo not drawn) | inactive |
| CC(=O)Nc1ccc(NC(=O)COc2ccc(S(=O)(=O)NC(C)c3ccccc3)cc2)cc1 (stereo not drawn) | inconclusive [inhibitor, partial curve, poor fit] |
| CC(=O)Nc1nc(-c2ccc3c(c2)CC(C)N3C(=O)C2CC2)c(C)s1 (stereo not drawn) | inactive |
| CCn1cc(C(=O)OCC(=O)OC2CC(C)CCC2C(C)C)c(=O)c2ccc(C)nc21 (stereo not drawn) | inconclusive [inhibitor, single point] |
| CCOC(=O)CSc1nc(-c2ccccc2)nc2c1oc1ccccc12 | inactive |

| Structure (SMILES) | Potency |
| --- | --- |
| Nc1nc(SCc2ccccc2)c2[nH]cnc2n1 | inactive |
| O=C(Nc1ccc(C(=O)NC2CCCCC2)cc1)c1cccnc1 | inactive |
| Cc1cnccc1NC(=O)c1cccs1 | inactive |
| O=C(O)c1cccnc1SCCc1ccccc1 | inactive |
| CCC(C)(C)NC(=O)c1ccc2c(c1)N(CC(=O)NC1CCCC1)C(=O)C(C)(C)O2 | inactive |
| c1ccc(-c2cn3c(n2)-c2ccccc2C3)cc1 | inactive |
| CC(C)CC(COCc1cccc(Cl)c1)N1CCN(C(=O)c2cccc(C(F)(F)F)c2)CCC1=O (stereo not drawn) | inconclusive [inhibitor, single point] |
| COc1ccc(C)cc1NC(=O)c1ccc2c(=O)n3c(nc2c1)CCCCC3 | inconclusive [inhibitor, partial curve, poor fit] |
| CCC(Sc1nc(=O)cc(N)n1CCc1ccccc1)C(=O)Nc1cc(C)on1 (stereo not drawn) | inconclusive [inhibitor, partial curve, poor fit] |
| CC1CCC(NC(=O)CCS(=O)(=O)c2ccc3c(c2)CC(C)N3C(=O)C2CC2)CC1 (stereo not drawn) | inconclusive [inhibitor, single point] |
| CCc1ccc(CN(C)C(=O)CCc2nnc(CCc3cccc(OC)c3)o2)nc1 | inconclusive [inhibitor, single point] |
| COc1cccc(CSc2nccn2C)c1 | inactive |
| CS(=O)(=O)N(CC(=O)N1CCN(c2cccc(Cl)c2)CC1)c1cccc(F)c1 | inconclusive [inhibitor, single point] |
| Nc1nc(N)c2[nH]c(-c3ccccc3)nc2n1 | inactive |
| O=C(N/N=C/c1ccc(F)cc1)c1cc(-c2ccc3c(c2)OCO3)n[nH]1 | inactive |
| Cc1ccc(N(Cc2ccccc2O)C(=O)c2ccccc2F)cc1 | active: 9.28 µM |
| Cc1cc2oc(=O)cc(CN3CCN(C/C=C/c4ccccc4)CC3)c2cc1O | active: 2.94 µM |
| O=C(CSc1nnc(COc2cccc3ccccc23)o1)N1CCN(C(=O)c2ccco2)CC1 | inconclusive [inhibitor, single point] |
| CCOc1ccccc1C(=O)OC(C)C(=O)Nc1ccc(S(=O)(=O)N2CCCC2)cc1 (stereo not drawn) | inconclusive [inhibitor, single point] |
| O=C(OC1CCN(c2ncc(C(F)(F)F)cc2Cl)CC1)c1ccccc1 | inactive |
| O=C(Cc1ccc(F)cc1)Nc1nnc(-c2ccc(F)cc2)o1 | inconclusive [inhibitor, single point] |
| CN(C)S(=O)(=O)c1cccc(C(=O)Nc2cc(S(=O)(=O)N3CCOCC3)ccc2O)c1 | inconclusive [inhibitor, single point] |
| O=C(Nc1ccc(Cl)cc1)c1ccco1 | inactive |
| COc1cc(/C=N/NC(=O)c2ccc(CSc3nncn3C)cc2)ccc1OCC(=O)N1CC(C)OC(C)C1 (stereo not drawn) | inconclusive [inhibitor, partial curve] |
